Among all 310,000 compounds or so, about 2,200 (0.71%) showed an effect of 50% or more. The effect is printed as a negative number. The list shows a part of the results.
Molecular target: human ether-à-go-go-related gene (hERG) potassium channel (human, UniProt Q12809)
Test: primary screen, population patch clamp on CHO cells stably expressing hERG

human ether-à-go-go-related gene (hERG) potassium channel, sequence (Q12809 whole entry, looked up): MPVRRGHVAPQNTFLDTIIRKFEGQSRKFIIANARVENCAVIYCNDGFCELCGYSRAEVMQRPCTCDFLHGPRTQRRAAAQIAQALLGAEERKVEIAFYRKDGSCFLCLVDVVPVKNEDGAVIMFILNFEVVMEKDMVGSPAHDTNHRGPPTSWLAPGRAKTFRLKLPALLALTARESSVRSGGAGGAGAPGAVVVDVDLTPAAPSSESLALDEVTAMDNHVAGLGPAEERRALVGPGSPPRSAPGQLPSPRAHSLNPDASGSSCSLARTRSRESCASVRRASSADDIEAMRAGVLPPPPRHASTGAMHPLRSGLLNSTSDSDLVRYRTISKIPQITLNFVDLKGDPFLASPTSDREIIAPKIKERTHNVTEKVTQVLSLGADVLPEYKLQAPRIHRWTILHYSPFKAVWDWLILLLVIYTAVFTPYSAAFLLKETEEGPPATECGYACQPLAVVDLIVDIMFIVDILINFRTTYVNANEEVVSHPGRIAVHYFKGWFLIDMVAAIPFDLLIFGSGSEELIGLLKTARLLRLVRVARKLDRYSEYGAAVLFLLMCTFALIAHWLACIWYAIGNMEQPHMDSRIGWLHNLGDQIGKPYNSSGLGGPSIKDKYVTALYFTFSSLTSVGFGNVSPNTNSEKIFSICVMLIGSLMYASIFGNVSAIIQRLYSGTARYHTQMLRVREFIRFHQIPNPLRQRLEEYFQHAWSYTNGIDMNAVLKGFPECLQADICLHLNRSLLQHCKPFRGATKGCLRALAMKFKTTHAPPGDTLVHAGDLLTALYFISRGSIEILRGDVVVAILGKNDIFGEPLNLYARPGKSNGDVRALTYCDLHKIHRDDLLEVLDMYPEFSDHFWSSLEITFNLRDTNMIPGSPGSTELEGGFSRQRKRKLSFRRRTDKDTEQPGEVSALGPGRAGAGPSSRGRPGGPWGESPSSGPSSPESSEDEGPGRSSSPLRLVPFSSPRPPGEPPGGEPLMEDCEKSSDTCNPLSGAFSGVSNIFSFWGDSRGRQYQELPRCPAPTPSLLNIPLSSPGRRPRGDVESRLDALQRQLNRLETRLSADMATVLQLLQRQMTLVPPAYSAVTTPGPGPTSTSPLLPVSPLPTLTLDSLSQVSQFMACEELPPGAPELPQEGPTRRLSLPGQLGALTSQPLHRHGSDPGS

| SMILES | hERG current change (%, negative = inhibition) at 1uM |
| --- | --- |
| Cl.O=C(CN(CCO)c1ccccc1)NC12CC3CC(CC(C3)C1)C2 | 2.99% |
| C/C(=C\c1ccccc1)CN1CCN(c2ccccc2F)CC1 | 14% |
| COc1cc(/C=C2\SC(=S)N(CCC(=O)Nc3ccc(O)cc3)C2=O)cc(OC)c1OC | 10.5% |
| Cc1ccc(Cn2nc(C)c(NC(=O)C3(C)CC3(Br)Br)c2C)cc1 (centres unmarked) | 7.98% |
| CCCCc1nc(C(N)=O)c2[nH]c(=O)n(-c3ccc(OC)cc3OC)c2n1 | 5.55% |
| O=C(CSc1nnnn1-c1ccc(F)cc1)Nc1ccc(N2CCOCC2)c(Cl)c1 | -12.5% |
| CCOC(=O)c1ccccc1Oc1c(F)c(F)nc(NCCO)c1F | 10.5% |
| O=C1NC[C@H](CC2CCCCC2)N(CCc2cccc(F)c2)C1=O | 13.6% |
| Cn1c(=O)[nH]c2cc3ccccc3cc21 | 7.75% |
| Cc1cc(C)c2c(CN3CCN(C/C=C/c4ccccc4)CC3)cc(=O)oc2c1 | -41.5% |
| CC(=NCCN1CCN(C(=S)Nc2ccccc2)CC1)C1=C(O)CC(C)(C)CC1=O | -0.835% |
| CN(C)C=O.O=C(NCCc1ccccc1)c1oc2ccccc2c1COc1ccccc1 | 8.07% |
| O=C(Nc1nc2c(Cl)cccc2s1)c1ccc([N+](=O)[O-])o1 | 19.4% |
| Cc1cc(S(=O)(=O)Nc2ccc(C(=O)NCC(c3ccco3)N3CCCCC3)cc2)ccc1F (centres unmarked) | 10.5% |
| CCOC(=O)c1c(C)n(CCOc2ccccc2)c2ccc(O)cc12 | 20.2% |
| O=C(NCCN1CCOCC1)c1ccc(Cl)nc1 | 15.6% |
| COc1ccc(C(=O)CSc2nnc(CNc3nc(-c4ccccc4)cs3)n2C)cc1 | 4.81% |
| COCCNC(=S)Nc1ccc2nsnc2c1 | -1.43% |
| COc1ccc(CN(C)C(=O)c2[nH]c(C)c(C(C)=O)c2C)c(OC)c1OC | 5.68% |
| Oc1ccc(Cl)cc1C(C#Cc1ccccc1)N1CCOCC1 (centres unmarked) | 1.2% |
| O=C(NCC1CCCO1)c1cccc(N2C(=O)C3C4C=CC(C4)C3C2=O)c1 (centres unmarked) | 6.71% |
| Cc1ccccc1OCC(=O)NNC(=O)C1CC(=O)N(c2ccc3c(c2)OCCO3)C1 (centres unmarked) | 4.16% |
| CCCCNC(=O)c1ccc2c(SCC(=O)O)c3c(nc2c1)CCCC3 | 5.78% |

| SMILES | hERG current change (%, negative = inhibition) at 1uM |
| --- | --- |
| COc1ccc(-c2cn3cccnc3n2)cc1NC(=O)C1CCCC1 | 1.4% |
| COC(=O)[C@H](Cc1ccccc1)NC(=O)NCc1ccc(S(N)(=O)=O)cc1 | 17.4% |
| Cn1ncc2c(NNC(=O)c3ccc(Cl)cc3Cl)ncnc21 | 14.7% |
| CC(=O)C(=Nc1ccc(Cl)cc1Cl)NNc1cccc(Cl)c1 | 12.3% |
| COc1ccc(Nc2ncccc2C(=O)NCc2ccccc2)cc1 | 8.04% |
| CN(CC(=O)Nc1c(Cl)cccc1Cl)C(=O)Cn1[nH]c(=O)c2ccccc2c1=O | 1.64% |
| Cc1ccc(CNC(=O)C2CC=CCC2C(=O)O)cc1 (centres unmarked) | 13.2% |
| Cc1nc2c(C)cccn2c1/C(O)=C1\C(=O)C(=O)N(CCN(C)C)C1c1ccncc1 (centres unmarked) | 10.1% |
| CC(CCc1ccccc1)NC(=O)CSc1ccccn1 (centres unmarked) | 3.49% |
| COc1cc(CN2CCN(c3cccc(C)c3C)CC2)cc(OC)c1O | -20.4% |
| O=C(CC1(CC(=O)N2CCOCC2)CCCC1)Nc1ccccc1 | 9.08% |
| COc1cc(CNn2cnnc2)ccc1OCC(=O)NC1CCCCC1 | 5.25% |
| Cc1nnc(NC(=O)c2ccccc2NC(=O)c2ccccc2)s1 | 0.378% |
| COc1ccc(NC(=O)CSc2cn[nH]n2)c(OC)c1 | 12.7% |
| CCN(C(=O)CSc1nnc(-c2c[nH]c3ccccc23)o1)C1CCS(=O)(=O)C1 (centres unmarked) | 5.54% |
| CCOc1ccccc1OCCCNCc1ccccc1.O=C(O)C(=O)O | 7.63% |
| Cc1ccc(CS(=O)(=O)CCC(=O)NCc2ccc3c(c2)OCO3)cc1 | 7.4% |
| Cc1ccc(-c2nc(SC(C)C(=O)N3CCOCC3)n[nH]2)cc1 (centres unmarked) | 9.18% |
| COc1ccc(CCN(C)C(=O)/C=C/c2c(Cl)nc3ccccn23)cc1OC | 17.9% |
| O=C(O)C(=O)O.O=S(=O)(c1ccc(Cl)c(C(F)(F)F)c1)N1CCN(CC(O)COCC2CCCO2)CC1 (centres unmarked) | -0.996% |
| CC1(C)[C@@H](O)CC[C@]2(C)C3C(O)C=C4[C@H]5C[C@@](C)(C(=O)O)CC[C@]5(C)CC[C@]4(C)[C@]3(C)CC[C@@H]12 (some centres unmarked) | 12.7% |
| Cc1nc2nc(-c3ccccc3)cn2nc1C | 7.2% |
| O=C(NCCN1CCOCC1)c1c(O)nc2ccccn2c1=O | 9.31% |

| SMILES | hERG current change (%, negative = inhibition) at 1uM |
| --- | --- |
| COC(=O)C1=C(C)N(C)C(=S)NC1c1ccc(Cl)cc1 (centres unmarked) | 8.24% |
| O=c1[nH][nH]c(-c2ccccc2O)c1C(C[N+](=O)[O-])c1ccc(Cl)cc1Cl (centres unmarked) | 12.9% |
| COc1ccc(NC(=O)c2sc3nc(N4CCOCC4)c4c(c3c2N)CC(C(C)C)OC4)c(OC)c1 (centres unmarked) | 15.2% |
| O=C([O-])CSc1nc2c(c(C(F)(F)F)n1)CCCC2.[Na+] | 13.8% |
| O=C(Oc1ccc(/C=N/O)cc1)c1ccccc1Cl | 9.77% |
| O=C(Cc1ccc([N+](=O)[O-])cc1)N1N=C(c2ccncc2)CC1(O)C(F)(F)F (centres unmarked) | 9.79% |
| CN1C(=O)C(Cc2cccc3ccccc23)C(=O)N(C)C1=O | 9.31% |
| O=C(c1ccccc1)N1CCN(CCc2ccccc2)CC1 | -5.25% |
| C=CCOc1c(Br)cc(CNn2cn[nH]c2=S)cc1OC | -1.26% |
| Cc1nnc(NC(=O)CSc2nnc(CNC(=O)c3ccccc3)n2-c2ccccc2)s1 | 9.59% |
| CCCN(CCC)CCNS(=O)(=O)c1ccc2c(c1)oc(=O)n2C | 17.9% |
| S=c1nc(-c2ccc(Br)cc2)[nH]c2ccccc12 | 12.7% |
| COc1cc(C[C@@H](C)N)c(OC)cc1I.Cl | 1.41% |
| CCn1c(=O)c(=O)[nH]c2cc(C(=O)NC3CCCC3)ccc21 | 16.3% |
| O=S(=O)(Nc1ccc2oc(-c3ccccc3)nc2c1)c1ccccc1 | -4.08% |
| COc1ccc(-c2c(C)nn3c(N4CCC(C(=O)N5CCCCC5)CC4)cc(C)nc23)cc1OC | 11.5% |
| CC1CCC(NC(=O)COC(=O)CCC(=O)c2ccc(Cl)s2)CC1 (centres unmarked) | 15.4% |
| CC1(C)CC(N2CCCC2)=CC(=[N+]2CCCCCC2)C1.[I-] | 7.55% |
| O=C(Nc1c(F)cc(F)cc1Br)c1cc(-c2ccco2)on1 | 5.89% |
| O=C(NCCCN1CCOCC1)c1ccccc1.O=C(O)C(=O)O | 18% |
| O=C(CNc1cccc(S(=O)(=O)N2CCOCC2)c1)Nc1cccc(Br)c1 | -2.34% |
| Cc1nnc(NC(=O)c2ccc(C)c(S(=O)(=O)N3CCOCC3)c2)s1 | 11.7% |
| COc1ccc(Cl)cc1NC(=S)N1CCCC1 | 10.1% |

| SMILES | hERG current change (%, negative = inhibition) at 1uM |
| --- | --- |
| COc1ccc(NC(=O)CN2C(=O)NC(c3ccccc3)(c3ccccc3)C2=O)cc1OC | 3.77% |
| NC(=O)[C@@H]1CCCN1Cc1c(C(=O)N2CCN(C3CCCCC3)CC2)nc2ccccn12 | 11% |
| Cc1cc(C)c(S(=O)(=O)NCc2cccnc2)c(C)c1 | 6.49% |
| CCOc1ccc(/C(O)=C2/C(=O)C(=O)N(CC3CCCO3)C2c2ccco2)cc1 (centres unmarked) | 14.8% |
| Cc1cc(NC(=O)CCC(=O)N(CC(=O)NC2CCCC2)c2ccc(F)cc2)no1 | 6.11% |
| COC(=O)CCCNC(=O)CN1CC(c2ccccc2)CC1=O (centres unmarked) | 4.06% |
| COCCNC(=O)c1cc(OC)c(OC)cc1[N+](=O)[O-] | 10.4% |
| CCCN(CCC)Cc1c(C(=O)N/N=C/c2ccc(Br)cc2)nnn1-c1nonc1N | 8.16% |
| COc1ccc(CCN(C)C(=O)CN2C(=O)NC3(CCCCC3C)C2=O)cc1OC (centres unmarked) | 17.5% |
| CCOc1ccc(NC(=O)c2c(C)nn(Cc3ccccc3)c2Cl)cc1 | 11% |
| O=C1COc2ccc(C(=O)COC(=O)CNC(=O)c3ccco3)cc2N1 | -2.94% |
| O=C(Cc1ccc(F)cc1)Nc1ccc(S(=O)(=O)N2CCCC2)cc1 | 16.3% |
| CCCCCN1C=CC=C/C1=C\C=C(C#N)C#N | -28.2% |
| CC(C)(C)CC(=O)NCc1cccs1 | -1.18% |
| COc1ccccc1OCC(=O)NCc1cccs1 | 21.2% |
| Cn1c(=O)oc2cc(S(=O)(=O)N3CCN(c4cccc(Cl)c4)CC3)ccc21 | 9.55% |
| COc1cc(Cl)cc(C2NC(=O)NC(C)=C2C(=O)NCc2ccccc2)c1O (centres unmarked) | 4.02% |
| COc1ccc(S(=O)(=O)N2CCOc3ccccc32)cc1 | 14.8% |
| COC(=O)CSc1nc(C)cc(C)c1C#N | 20.4% |
| O=C(Nc1nc(-c2ccc3c(c2)OCO3)cs1)C1COc2ccccc2O1 (centres unmarked) | 11.6% |

From publication PMC4336329 (PLoS ONE, 2015)
